According to the supplement of paper PMC10126150:
Values marked as one replicate rest on one cluster of the flow cell; about a third of the high ones do not repeat.

Test system: ATP
Test: switch fluorescence ratio, 500 uM ATP over buffer (Cy3 cluster intensity, sum of 5 cycles each) (fold (ratio)); higher = stronger signal-on switching upon ATP binding; sequences stand for … in TCGTCGGCAGCGTCAGATGTGTATAAGAGACAGTTTTTTTTTTTTTTTTTTTTTTTTT…TC
Conditions: aptamer strand: ATP DNA aptamer (quencher-CACCTGGGGGAGTATTGCGGAGGAAGG + anchor), 100 nM annealed; ATP concentration: 500 uM; one replicate
Summary of the method: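 Switching-strand clusters labelled with Cy3 on a modified Illumina MiSeq flow-cell were annealed to 100 nM quencher-labelled ATP aptamer, imaged in selection buffer, and re-imaged after 15 min with 500 uM ATP at 22 °C. This was done over five cycles with NaOH stripping and re-annealing in between. The fluorescence ratio is summed target-cycle over summed buffer-cycle Cy3 intensity per cluster, averaged per switch-domain sequence, excluding clusters outside 100-1000 RFU.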
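Also: ATP exposure 15 min at 22 °C before imaging.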

Sequence	switch fluorescence ratio
TATCTGGATT	0.99
TTCGTATTGG	0.97
GGGAACGTAC	1.79
CGGGAGGAGC	1.04
TACACACCCG	1.38
TGTAATTCCG	0.985
TCTTAACGGA	1
CCTCGATGGG	1.03
GACTATGCCC	1.07
ACTCGTTTAC	1.44
CCGAAGGTTT	1.04
TTAATTGTCA	1.02
GCAGTCGCTT	0.978
CATACTGATC	1.14
TTATCTAATA	1.01
CTATCTCTGG	1.02
GAGTCGCCGC	0.976
CGCCTTGTAA	1.03
TTTGGGCTT	0.989
GGCGAACGTG	0.986
TGGTTTAGCC	0.942
AAAAACTTCG	1.05

Sequence	switch fluorescence ratio
CCTCAAACCT	1.94
CCCTGAGGCC	0.927
ATTTAAAAGA	0.992
GGACTCCGTT	1.07
GAACTAGGG	0.963
CGTGGGTGCC	0.995
GAAGTTCTCA	1.04
CTCTAATCTG	1.05
AGACGATGAA	1
GCCTGAGGTC	0.992
TTCCTTTAG	1.21
TGAATGCGAC	1
GTTTGCCCGT	1.06
AGAGTTGAAA	0.983
GATGACCAAG	0.96
GTCAACTCGC	0.965
GATGTGCGCT	1.02
AGGAGGGATT	1.02
CGCTACTGGA	1.11
CGTTAGGGTC	1.01
TCAGGTGACA	1.19
TTAGGGTATC	0.978

Sequence	switch fluorescence ratio
ATAACAGTCC	1.06
CGGAAGTAGT	0.99
GTTAAGTAAA	1.01
CGCAAATTTC	3.67
TATGGTTGGC	1
GGTTGTTCGC	0.956
AAAAATCCGG	1.02
TTGTGTTA	0.973
CACACAATCT	1.04
GGAAAGCAGC	1.04
TACAAACTAA	1.08
AGTCGTGGAG	0.998
TCTGAAATAT	1.04
AACAAAGGCC	1.02
ATTCGGGAGG	0.994
GCAGCTCCG	1.05
AAACACTCTT	1.08
GAAATCGAGG	0.99
ATGTTATATC	1.05
ACCTTTCTCG	3.06
ATAACCGTGA	1.06
ACGGTAGTTT	0.981

Sequence	switch fluorescence ratio
TTTATAAACA	0.981
CGACTCGTGG	1
TAGATTGGAC	0.985
AACAGCAACG	1.03
GTACTTCTTG	1.03
AACCGCGTAG	1.11
GGATGCGGAG	0.993
CTGAAAAGGT	0.98
CTCTAATATT	1.24
GTGCGGGAAC	1.07
ATTCCCGATC	1.08
AGTACGGAGG	0.986
GGTGTATGCA	0.965
TTATCGGGGG	1.05
TGGTCAGTTT	0.957
TGTATCTTTT	0.982
CTTAATGTTA	1.01
TAGTTAAGCG	0.965
CTACTGCGGC	1.07
